The results in this text go back to PMC4336329 (PLoS ONE, 2015).

Structures are written as SMILES. Out of some 310,000 compounds screened, about 14,000 (4.5%) showed an effect of 50% or more. Effects have a minus sign here. The list shows a part of the results.
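Further: peak tail current of the secondary pulse compared with the same well before compound.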

For this experiment, the target named is human ether-à-go-go-related gene (hERG) potassium channel (human, UniProt Q12809). The experiment can be described thus: primary screen, population patch clamp on CHO cells stably expressing hERG.
human ether-à-go-go-related gene (hERG) potassium channel, sequence (Q12809 whole entry, looked up): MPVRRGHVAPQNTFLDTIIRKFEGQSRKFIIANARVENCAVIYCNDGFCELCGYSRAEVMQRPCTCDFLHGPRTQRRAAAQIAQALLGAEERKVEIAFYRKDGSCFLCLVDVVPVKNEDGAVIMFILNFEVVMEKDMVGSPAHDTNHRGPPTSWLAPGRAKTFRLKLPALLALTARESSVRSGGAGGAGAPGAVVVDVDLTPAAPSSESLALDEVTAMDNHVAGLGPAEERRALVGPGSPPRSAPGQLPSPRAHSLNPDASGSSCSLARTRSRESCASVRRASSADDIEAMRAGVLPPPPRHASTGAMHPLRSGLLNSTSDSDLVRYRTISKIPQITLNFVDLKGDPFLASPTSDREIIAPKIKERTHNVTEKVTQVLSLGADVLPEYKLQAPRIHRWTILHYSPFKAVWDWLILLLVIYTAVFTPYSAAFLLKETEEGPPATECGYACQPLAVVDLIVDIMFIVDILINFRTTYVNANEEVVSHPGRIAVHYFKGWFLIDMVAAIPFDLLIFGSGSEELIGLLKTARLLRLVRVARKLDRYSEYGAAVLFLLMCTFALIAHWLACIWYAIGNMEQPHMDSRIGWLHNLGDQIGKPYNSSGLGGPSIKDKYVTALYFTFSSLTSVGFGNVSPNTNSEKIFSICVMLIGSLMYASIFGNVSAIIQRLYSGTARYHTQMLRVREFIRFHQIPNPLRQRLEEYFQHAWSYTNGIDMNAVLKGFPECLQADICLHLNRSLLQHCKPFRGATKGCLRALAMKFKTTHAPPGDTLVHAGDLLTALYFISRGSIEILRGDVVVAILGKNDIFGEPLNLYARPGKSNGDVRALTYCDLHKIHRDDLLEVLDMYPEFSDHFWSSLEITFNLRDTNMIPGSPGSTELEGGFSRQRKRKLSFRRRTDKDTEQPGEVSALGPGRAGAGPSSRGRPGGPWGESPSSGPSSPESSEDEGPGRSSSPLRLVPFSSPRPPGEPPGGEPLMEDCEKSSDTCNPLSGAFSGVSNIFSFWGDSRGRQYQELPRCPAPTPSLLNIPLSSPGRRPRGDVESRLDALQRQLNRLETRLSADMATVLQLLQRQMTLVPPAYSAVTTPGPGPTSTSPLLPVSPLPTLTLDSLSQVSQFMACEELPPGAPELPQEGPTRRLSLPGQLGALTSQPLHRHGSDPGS
Turning to `COc1cc(C)cc(OC)c1OCC(=O)Nc1cc(C)on1`, the “hERG current change (%, negative = inhibition) at 10uM” value is given as 10.8%. The value for `CCN(CC)S(=O)(=O)c1ccc(Cl)c(NC(=O)COC(=O)/C=C/c2cc(OC)c(OC)c(OC)c2)c1` was -1.95%; that for `O=C(CNC(=O)c1ccc(Cl)cc1Cl)OCC(=O)N1CCN(c2ccccc2)CC1` was -33%. Consider `COc1ccc(Cn2c(-c3ccc(C)cc3)nc3c(c(=O)c4ccccc4n3C)c2=O)cc1`, for which the “hERG current change (%, negative = inhibition) at 10uM” value was 20.3%.

Take `O=C(Nc1cccc(F)c1)c1ccccc1`: the “hERG current change (%, negative = inhibition) at 10uM” value is listed as 8.84%.

With `CC(C)Cc1ccc(CN2CCCC(NC(=O)Cn3cnnn3)C2)cc1` (centres unmarked), the “hERG current change (%, negative = inhibition) at 10uM” value is listed as -26.5%. For `CONC(=O)Nc1ccccc1[N+](=O)[O-]`, the “hERG current change (%, negative = inhibition) at 10uM” value was determined as 8.14%. For the molecule `c1ccn2c(c1)nc1c2nc2ccccn21`, the “hERG current change (%, negative = inhibition) at 10uM” value turned out to be 0.188%. The value for `CN(C)P(=O)(C(Cl)=C(N1CCCCC1)N1CCCCC1)N(C)C` was -8.58%; that for `COC(=O)c1c(-c2cc(C)ccc2C)csc1NC(=O)C1CC=CCC1C(=O)O` (centres unmarked) was -5.98%; that for `CCOC(=O)N1CCN(C(=O)CCNS(=O)(=O)c2ccccc2)CC1` was 8.69%. The value for `O=C(Cc1ccc(N2CCNC2=O)cc1)N1CCCC(Nc2cccc(F)c2)C1` (centres unmarked) was 4.88%; that for `COc1ccc(N(CC(=O)NCc2cccnc2)S(=O)(=O)c2c(C)nn(C)c2C)cc1` was 3.1%. In the case of `O=C(NC(O)C(=O)c1ccccc1)c1cccs1` (centres unmarked), the “hERG current change (%, negative = inhibition) at 10uM” value is recorded as 6.9%. Consider `CCOC(=O)CSc1nnc(CNc2nc(-c3ccccc3)cs2)n1C`, for which the “hERG current change (%, negative = inhibition) at 10uM” value is given as -22%. The value for `COc1ccc([C@H]2/C=C\CN(S(=O)(=O)c3cccc4cccnc34)[C@@H](C)C(=O)N2Cc2ccc(F)cc2)cc1` was -16.2%.

Turning to `O=C(O)c1cc(S(=O)(=O)N(Cc2ccccc2)c2cccc(C(F)(F)F)c2)ccc1Cl`, the “hERG current change (%, negative = inhibition) at 10uM” value was 9.43%. `CC(C)C[C@@H](CO)N1CCN(Cc2ccc(Br)cc2)CCC1=O`: the “hERG current change (%, negative = inhibition) at 10uM” value is -13.5%. Turning to `Cc1oc(-c2ccc(Cl)cc2)nc1CS(=O)CC(=O)NC1CC1` (centres unmarked), the “hERG current change (%, negative = inhibition) at 10uM” value stood at 8.75%.

With `CN(C)C(=O)Nc1cccc(OC(=O)N(C)C)c1`, the “hERG current change (%, negative = inhibition) at 10uM” value is recorded as 13.2%.

For `O=c1[nH]c2ccccc2cc1CN(c1ccccc1)S(=O)(=O)c1ccccc1`, the “hERG current change (%, negative = inhibition) at 10uM” value came out at 0.56%.

On to `CCN(c1ccccc1)S(=O)(=O)c1ccc(F)cc1`, for which the “hERG current change (%, negative = inhibition) at 10uM” value is 0.69%. `CCN(Cc1nc2ccccc2c(=O)[nH]1)C(=O)c1cc2c(s1)CCCCC2`: the “hERG current change (%, negative = inhibition) at 10uM” value stood at 4.62%. `CC1(C)C(C(=O)OCC(Cl)(Cl)Cl)N2C(=O)C(NC(=O)Cc3ccccc3)C2S1=O` (centres unmarked): the “hERG current change (%, negative = inhibition) at 10uM” value is 1.09%. Under `Cc1cc([P+](=O)O)c(C)n1-c1ccc(Br)cc1` stands 21.8%.

In the case of `Cl.Clc1cccc(NC2=NCCC2)c1`, the “hERG current change (%, negative = inhibition) at 10uM” value came to 11.8%. Regarding `COc1ccc(C(=O)N(C)C2CCCN(Cc3ccccc3F)C2)cc1C` (centres unmarked), the “hERG current change (%, negative = inhibition) at 10uM” value is given as 7.95%.

As to `CC1Cc2ccccc2N1C(=O)c1ccnc(C(C)(C)C)c1` (centres unmarked), the “hERG current change (%, negative = inhibition) at 10uM” value was 12.1%. For the molecule `CCOC(=O)CNC(=O)c1ccc2[nH]c3c(c2c1)CCCC3`, the “hERG current change (%, negative = inhibition) at 10uM” value amounted to 11.5%.

In the case of `COCCN(C(=O)c1csnn1)C(C(=O)NC1CCCC1)c1ccccc1` (centres unmarked), the “hERG current change (%, negative = inhibition) at 10uM” value is 3.23%. The value for `C=CCSc1ncnc2c1oc1nc3c(cc12)COC(C)(C)C3` was 16.7%; that for `CC(=NCCc1ccccc1)C1=C(O)COC1=O` was 5.36%; that for `Cc1scc(C(=O)NNC(=O)CCC(=O)O)c1C` was 9.43%.

For the molecule `O=C(Nc1ccc(F)cc1F)c1csc(-c2ccccc2)n1`, the “hERG current change (%, negative = inhibition) at 10uM” value amounted to 18%. The value for `CCN(CC)Cc1nc2c(c(=O)[nH]1)C1(CCCCC1)Cc1ccccc1-2` was 9.77%; that for `Cc1ccc(-n2c(SCC(=O)NCCN3C(=O)CSC3=O)nnc2-c2ccccc2)cc1` was -12.4%; that for `CC(C)n1ncc2c(C(=O)NCC(=O)Nc3ccccc3Br)cc(C3CC3)nc21` was -30.3%.

Turning to `COc1ccc(C2=NN(C(=O)CN3CCCCC3)C(c3ccc(C)cc3)C2)cc1` (centres unmarked), the “hERG current change (%, negative = inhibition) at 10uM” value is -54.9%. For `CN(CCc1ccccn1)C(=O)CC1C(=O)NCCN1Cc1ccc(-c2ccccc2)cc1` (centres unmarked), the “hERG current change (%, negative = inhibition) at 10uM” value is -21.2%. Take `O=C(NNS(=O)(=O)c1ccc(F)cc1)c1ccc([N+](=O)[O-])cc1`: the “hERG current change (%, negative = inhibition) at 10uM” value was determined as 2.38%. In the case of `COc1ccc(/C=N/OCC(=O)Nn2c(C)nc3ccccc3c2=O)cc1`, the “hERG current change (%, negative = inhibition) at 10uM” value was -4.87%. The value for `Cc1nc2ccc(Cl)cc2nc(C)/c1=N\O` was -1.89%; that for `CC(C)C(=O)Nc1ccc(C(=O)Nc2ccc(S(=O)(=O)N3CCOCC3)cc2)cc1` was -1.28%; that for `COc1ccc(C(Nc2ccccn2)c2c(NC(=O)c3ccco3)sc(C)c2C)cc1OC` (centres unmarked) was -6.48%. In the case of `NS(=O)(=O)c1ccc(CCNC(=O)CSCC(=O)Nc2ccc(Cl)cc2)cc1`, the “hERG current change (%, negative = inhibition) at 10uM” value is recorded as 0.167%. For `CCNS(=O)(=O)c1ccc(CCC(=O)Nc2ccc3c(c2)OCCO3)cc1`, the “hERG current change (%, negative = inhibition) at 10uM” value was determined as 7.22%. The value for `CN(CCC#N)C(=O)COC(=O)c1ccc(Cl)c(S(N)(=O)=O)c1` was 21.8%; that for `CC(=O)c1ccccc1NC(=O)COC(=O)c1c(C)nn(-c2ccccc2)c1C` was 4.23%. As for `COc1ccc(N2CCN(S(=O)(=O)c3cc(Br)cnc3N)CC2)cc1`, the “hERG current change (%, negative = inhibition) at 10uM” value amounted to 17.2%.

`CC(=O)Nc1nnc(SCC(=O)Nc2ccc(N3CCOCC3)c(Cl)c2)s1`: the “hERG current change (%, negative = inhibition) at 10uM” value is on record as 17.9%.

Consider `CC(=O)Nc1ccc2nc(-c3cccs3)[nH]c2c1`, for which the “hERG current change (%, negative = inhibition) at 10uM” value was 12.2%. `CCN(CC)S(=O)(=O)c1ccc2c3c(cccc13)C(=O)S2`: the “hERG current change (%, negative = inhibition) at 10uM” value is reported as -18.4%. Under `COc1ccc(C(=O)COC(=O)CCNS(=O)(=O)c2ccccc2)c(OC)c1` stands -45.7%; under `CCCS(=O)(=O)N1CCCC(C(=O)NCCN(Cc2ccccc2)C(C)C)C1` (centres unmarked), -25.6%. The value for `CCOC(=O)CSc1nc(N2CCOCC2)c2c(c1C#N)CC(C(C)C)OC2` (centres unmarked) was -48.7%. Under `CCn1c(C)nc([N+](=O)[O-])c1C(=O)O` stands 6.92%; under `C=C1C(O)C[C@H]2C(=C)CCC3[C@H](OC(=O)[C@]3(O)CO)[C@@H]12` (some centres unmarked), 26.2%; under `Cc1nn(S(=O)(=O)c2ccc(Br)cc2)c(C)c1S(=O)(=O)N1CCOCC1`, -1.31%.

`COCc1nnc(NC(=O)c2ccc(S(=O)(=O)N(C)Cc3ccccc3)cc2)o1`: the “hERG current change (%, negative = inhibition) at 10uM” value turned out to be 5.53%.

Take `O=C(NCCCN1CCOCC1)[C@@H]1CSC2c3ccccc3C(=O)N21` (some centres unmarked): the “hERG current change (%, negative = inhibition) at 10uM” value is 8.36%.

Regarding `O=C(Nc1cccc(Cl)c1N1CCOCC1)c1ccc([N+](=O)[O-])o1`, the “hERG current change (%, negative = inhibition) at 10uM” value is 2.67%. Consider `CCn1c2ccccc2c2nc3cc(OC)c(OC)cc3nc21`, for which the “hERG current change (%, negative = inhibition) at 10uM” value is listed as 14.7%. Under `CCCCN1C(=O)C(O)=C(C(C)=O)C1c1ccccc1` (centres unmarked) stands 11%; under `Cc1cc(C)nc(Nc2ccc(O)cc2)n1`, -0.568%; under `O=c1cc(C2CCNCC2)[nH][nH]1`, 4.59%.

Regarding `Cc1nc2ccccc2c(=O)n1-c1ccccn1`, the “hERG current change (%, negative = inhibition) at 10uM” value was 16.6%. As to `COc1cc(NC(=O)CN(C)S(=O)(=O)c2ccc(-c3ccc(=O)[nH]n3)s2)cc(OC)c1`, the “hERG current change (%, negative = inhibition) at 10uM” value was -5.53%. Under `CCN(CC)C(=O)c1ccc(Nc2nnc(C)c3ccccc23)cc1` stands -13.8%.

In the case of `CC(C)(C)OC(=O)NCCCC[C@@H](C(=O)N1CCN(C(=O)OC(C)(C)C)CC1)n1cc(C(CO)NC(=O)OC(C)(C)C)nn1` (some centres unmarked), the “hERG current change (%, negative = inhibition) at 10uM” value is 18.8%.

As for `CSc1ncccc1C(=O)OCC(=O)C(C)(C)C`, the “hERG current change (%, negative = inhibition) at 10uM” value is listed as -8.39%. Under `Cc1ccc(C(=O)N2CCNC(=O)C2CC(=O)Nc2ccccc2)cc1` (centres unmarked) stands 7.21%. Take `C=CCn1c(SCC(=O)Nc2nccs2)nnc1-c1cc2cccc(OC)c2o1`: the “hERG current change (%, negative = inhibition) at 10uM” value was -4.98%.

Take `CCCc1nc2nc(C)c(NS(=O)(=O)c3ccc(C(C)(C)C)cc3)c(=O)n2[nH]1`: the “hERG current change (%, negative = inhibition) at 10uM” value stood at 19.1%. The value for `Cc1ccc(/C=N/NC(=O)c2cc(-c3cccnc3)nc3ccccc23)cc1` was -5.06%.

Take `c1ccc(CN(Cc2ccccc2)c2nn[nH]n2)cc1`: the “hERG current change (%, negative = inhibition) at 10uM” value turned out to be 0.498%.

Take `O=C(CSc1ccc2nnc(CCNS(=O)(=O)c3ccccc3)n2n1)Nc1nc2ccccc2s1`: the “hERG current change (%, negative = inhibition) at 10uM” value is recorded as -0.993%. The value for `O=C(O)C1=C[C@H](c2ccc3c(c2)OCO3)C[C@H](OCc2ccc(CO)cc2)O1` was 20.6%; that for `O=C1C2CC=CCC2C(=O)N1c1ccc(NCCc2cccc(F)c2)c([N+](=O)[O-])c1` (centres unmarked) was 3.22%; that for `CCOC(=O)N1CCN(CCC(=O)Nc2ccc(C)c(Br)c2)CC1.Cl` was -49.8%. As for `O=C(Nc1cccc2ccccc12)C1CCCC1`, the “hERG current change (%, negative = inhibition) at 10uM” value is listed as 5.2%. Take `O=[N+]([O-])c1ccc(CSc2ccccn2)cc1`: the “hERG current change (%, negative = inhibition) at 10uM” value was -21%. Under `Cc1ccc2[nH]cc(C(=O)CN3CCN(c4ccccn4)CC3)c2c1` stands -37.4%; under `CCNCC(=O)N1c2ccccc2CCc2ccc(NC(=O)OCC)cc21`, -12%; under `COc1ccc(C(=O)NCCS(=O)(=O)N2CCOCC2)cc1`, 10.8%. In the case of `Cc1nc(C(N)=O)nc2ccccc12`, the “hERG current change (%, negative = inhibition) at 10uM” value is reported as 5.71%.

Turning to `O=C(CSc1ncn[nH]1)N/N=C/c1ccc(Br)cc1`, the “hERG current change (%, negative = inhibition) at 10uM” value is on record as -11.4%. Turning to `CC1=C(C#N)c2nc(N)c(C#N)c(C)c2/C1=C\c1ccc(C)cc1`, the “hERG current change (%, negative = inhibition) at 10uM” value worked out at 3.8%. Under `CCOC(=O)C(C)(C)n1nnc(-c2ccc([N+](=O)[O-])cc2)n1` stands -10.2%; under `COc1ccccc1Oc1nc2ccccn2c(=O)c1/C=C(\C#N)C(=O)Nc1c(C)n(C)n(-c2ccccc2)c1=O`, 11.1%.
